Test results reported in article PMC4336329 (PLoS ONE, 2015).
In all, about 310,000 compounds went through this assay and about 2,200 (0.71%) showed an effect of 50% or more. Effects have a minus sign here. Some of the results follow.

target: human ether-à-go-go-related gene (hERG) potassium channel (human, UniProt Q12809); test: primary screen, population patch clamp on CHO cells stably expressing hERG
Sequence (Q12809 whole entry, looked up): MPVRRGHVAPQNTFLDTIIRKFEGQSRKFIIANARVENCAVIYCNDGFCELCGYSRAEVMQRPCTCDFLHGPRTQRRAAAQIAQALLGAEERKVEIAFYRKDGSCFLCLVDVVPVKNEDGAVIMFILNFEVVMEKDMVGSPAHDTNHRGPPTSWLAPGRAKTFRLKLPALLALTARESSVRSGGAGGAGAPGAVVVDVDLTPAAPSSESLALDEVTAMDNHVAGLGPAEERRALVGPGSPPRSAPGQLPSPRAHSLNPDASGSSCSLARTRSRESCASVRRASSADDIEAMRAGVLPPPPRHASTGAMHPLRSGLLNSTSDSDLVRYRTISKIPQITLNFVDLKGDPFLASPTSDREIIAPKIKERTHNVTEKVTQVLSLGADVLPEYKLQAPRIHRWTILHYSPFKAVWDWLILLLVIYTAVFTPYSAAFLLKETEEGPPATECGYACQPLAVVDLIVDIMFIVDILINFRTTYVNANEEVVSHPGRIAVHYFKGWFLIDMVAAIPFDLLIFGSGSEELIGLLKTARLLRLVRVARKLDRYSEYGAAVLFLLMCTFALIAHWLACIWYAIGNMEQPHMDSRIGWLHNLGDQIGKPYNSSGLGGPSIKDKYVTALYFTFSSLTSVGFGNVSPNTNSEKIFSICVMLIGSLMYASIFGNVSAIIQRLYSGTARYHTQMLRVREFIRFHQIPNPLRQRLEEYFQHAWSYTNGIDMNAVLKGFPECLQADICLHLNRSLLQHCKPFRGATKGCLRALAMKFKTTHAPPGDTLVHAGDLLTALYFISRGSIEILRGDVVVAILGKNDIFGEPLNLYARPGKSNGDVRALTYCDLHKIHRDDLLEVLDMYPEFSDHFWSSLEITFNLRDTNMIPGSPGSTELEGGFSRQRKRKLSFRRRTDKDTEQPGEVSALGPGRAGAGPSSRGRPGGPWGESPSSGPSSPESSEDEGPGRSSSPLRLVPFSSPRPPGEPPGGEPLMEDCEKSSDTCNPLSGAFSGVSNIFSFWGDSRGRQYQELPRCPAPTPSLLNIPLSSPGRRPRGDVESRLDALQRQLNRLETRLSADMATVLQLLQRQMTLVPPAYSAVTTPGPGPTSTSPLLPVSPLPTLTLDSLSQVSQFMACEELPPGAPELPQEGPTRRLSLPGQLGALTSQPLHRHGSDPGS

SMILES | hERG current change (%, negative = inhibition) at 1uM [%]
CCOc1ccc2nc(SCC(=O)c3ccc(C)s3)sc2c1 | 13.6
O=C(CCc1ccccc1)NC(=S)Nc1ccc2c(c1)C(=O)OC2 | 4.97
Br.CCCCCCCCCCCCn1ccc(=N)cc1 | 1.82
CCCCc1nc2cc(C(=O)N3CCN(c4nc(C)cnc4C)CC3)ccc2o1 | 4.1
CC(C)CN(C(=O)Cn1ccccc1=O)C1CCS(=O)(=O)C1 (stereo not shown) | 4.44
CC(C)CNC(=O)CSc1n[nH]c(=O)n1CCc1ccccc1 | 16.1
c1ccc(CCc2nn3c(Cn4cnc5ccccc54)nnc3s2)cc1 | 3.21
O=c1[nH]c(C2CCN(S(=O)(=O)c3ccccc3F)CC2)nc2c1nnn2Cc1ccc(F)cc1 | 13.7
CC1(C(=O)O)CCC(C(=O)Nc2ccc(F)cc2)C1(C)C (stereo not shown) | 9.47
COc1ccc(C(=O)OCC(=O)NC2CC2)cc1OC | 7.05
O=C(COC(=O)CSc1cccc2cccc(Cl)c12)Nc1ncc(C(F)(F)F)cc1Cl | 10.4
COC(=O)/C=C1\S/C(=N/N=C/c2ccccc2)NC1=O | -0.633
Cc1cccc(CNC(=O)c2cc(S(=O)(=O)N3CCOCC3)cn2C)c1 | 13.6
Cc1ccc(C(=O)NCC2CCCO2)cc1N1CCCC1=O (stereo not shown) | 6.37
CCC(Cc1ccccc1)NS(=O)(=O)c1c(C)nc2sccn2c1=O (stereo not shown) | 4.12
O=C(NC1CCCC1)C(c1ccncc1)N(C(=O)Cn1nnc(-c2ccccc2F)n1)c1cccc(F)c1 (stereo not shown) | 2.57
O=C(O)c1ccccc1N1C(=O)C2C3CCC(C3)C2C1=O (stereo not shown) | 5.59
CC1CCc2sc(C(=O)N(C)CC(=O)Nc3ccc(N4CCOCC4)cc3)cc2C1 (stereo not shown) | 2.65
CC1CCCCN1CC(=O)Nc1ccc2c(c1)OCO2.O=C(O)C(=O)O (stereo not shown) | 0.25
Nc1ccc2c(c1)Cc1cc([N+](=O)[O-])ccc1-2 | 16.8
Cc1occc1-c1nnc(SCC(=O)c2c(N)n(Cc3ccccc3)c(=O)n(C)c2=O)n1C | 11.7
COc1ccccc1-c1c(C)c(C)nc(N)c1C#N | 6.92

SMILES | hERG current change (%, negative = inhibition) at 1uM [%]
Cc1ccc(NS(C)(=O)=O)c(C(=O)c2ccccc2)c1 | -8.81
Cc1ccccc1CC1SC(N)=NC1=O (stereo not shown) | 10.2
S=c1nc(-c2ccc(Cl)cc2)[nH][nH]1 | 17
CC(=O)N(Cc1ccc(F)cc1)C1=C(NCCc2ccccc2)C(=O)c2ccccc2C1=O | 6.84
COc1cc(CC(=O)Nc2ccc(Cl)c(C(F)(F)F)c2)cc(OC)c1OC | 4.63
Cc1ccc(NC(=O)CSCC(N)=O)cc1C | 9.86
Cc1ccc(C(=O)N2CCN(S(=O)(=O)c3ccccc3[N+](=O)[O-])C2)cc1 | 0.617
O=C1c2ccccc2OC2(C=Cc3ccccc3O2)N1Cc1ccccc1 (stereo not shown) | 6.13
CC(NC(=O)c1ccc(Cl)c(S(=O)(=O)N2CCCCCC2)c1)c1cccnc1 (stereo not shown) | -7.26
COc1ccc(S(=O)(=O)N2CCc3ccccc32)cc1C(=O)O | 5.65
CCc1ccc(NC(=O)CCNC(=O)Cn2ccc3ccccc3c2=O)cc1 | 23.2
O=C(N/N=C/c1ccc(O)c(O)c1)c1cc(-c2ccccc2)nc2ccccc12 | 9.97
CCN1C(=O)c2ccc(C(=O)Nc3ccc(O)cc3C)cc2C1=O | 19.6
N=c1oc2c3c4c(cc2cc1C(=O)Nc1ccccc1)CCCN4CCC3 | -5.12
O=c1cc(NC2CCCCC2)c2ccccc2o1 | 7.03
CC(C)CCN1CCN(Cc2coc3ccccc3c2=O)CC1CCO (stereo not shown) | 11.5
O=C(O)CCCC(=O)Nc1ccc2c(c1)oc1ccccc12 | 17.7
Cc1ccc(NC(=O)CSCC(=O)Nc2cc(Cl)ccc2N2CCN(C)CC2)cc1 | 4.92
CC(=O)Nc1cccc(C(=O)OCC(=O)c2ccc(S(=O)(=O)N3CCCCC3)cc2)c1 | 3.22
O=C1NCC(COc2ccc([N+](=O)[O-])cc2)O1 (stereo not shown) | -26.7
O=C(COc1cccc(F)c1)Oc1ccc(C(=O)c2ccccc2)cc1 | 9.25
CCCn1c(CCNC(=O)c2ccco2)nc2ccccc21 | 8.35

SMILES | hERG current change (%, negative = inhibition) at 1uM [%]
COc1ccc(N2C(=O)C3C4C=CC(C4)C3C2=O)c(OC)c1 (stereo not shown) | 14.7
N#Cc1ccc(C(=O)Nc2ccc(N3CCN(C(=O)c4ccco4)CC3)cc2)c(F)c1 | 9.97
Cc1cccnc1NCC(O)COc1ccccc1 (stereo not shown) | -18.7
COc1ccc(S(=O)(=O)N2CCN(CC(=O)Nc3cc(Cl)ccc3Cl)CC2)cc1 | 5.89
COc1ccccc1-c1cc(C(=O)N/N=C/C=C/c2ccccc2[N+](=O)[O-])c2ccccc2n1 | 10.3
COC(=O)C1=C(c2c(C)noc2C)C[C@@H]2CC[C@H]1N2C(=O)NC1CC1 | 14.3
O=C(COc1ncnc2c(Cl)cc(Cl)cc12)N1CCN(S(=O)(=O)c2ccccc2)CC1 | 9.74
Cc1ccc(NS(=O)(=O)c2ccc3c(c2)oc(=O)n3C)c(C)c1 | 15.5
COc1cc(S(=O)(=O)N(Cc2cccc(OC)c2OC)CC2CCCO2)ccc1-n1cnnn1 (stereo not shown) | 10.9
O=C(CC(NC(=O)C(F)(F)F)c1ccccc1)Nc1nnc(CCc2ccccc2)s1 (stereo not shown) | 2.53
COCCNC(=O)c1ccc2nc(Cc3ccc(OC)c(OC)c3)oc2c1 | 8.34
Cc1ccc(C)c(S(=O)(=O)Nc2cc(C)on2)c1 | 16.7
CN(C)S(=O)(=O)c1ccc(C(=O)OCC(=O)Nc2ccc3c(c2)OCO3)cc1 | 5.74
COc1ccccc1N(CC(=O)Nc1ccc2c(c1)OCO2)S(=O)(=O)c1ccccc1 | 13.4
Cc1c(Cl)cccc1NC(=S)NC1CC1 | 5.59
CCOc1ccc(S(=O)(=O)Nc2cccc(N(C)S(C)(=O)=O)c2)cc1 | 8.38
Cc1ccccc1CCNCc1cc2cccc(C)c2[nH]c1=O | -1.92
COc1ccc(C(=O)O)cc1S(N)(=O)=O | 8.32
COc1ccc2[nH]cc(C(=O)NCCc3ccccc3)c(=O)c2c1 | 9.28
O=C(Nc1ccncc1)C1CCN(S(=O)(=O)c2ccccc2C(F)(F)F)CC1 | 8.35
O=C(CCN1C(=O)COc2ccccc21)NCCCN1CCCC1 | 10.4
CCOc1ccc(NC(=O)Nc2c(C)n(C)n(-c3ccccc3)c2=O)cc1 | 27.8

SMILES | hERG current change (%, negative = inhibition) at 1uM [%]
CC1(C)CC(=O)C2=C(C1)OC(N)=C(C#N)C21C(=O)N(Cc2ccccc2Cl)c2ccccc21 (stereo not shown) | 16.5
O=C(NCc1ccccn1)C(=O)Nc1cc2c3c(c1)CC(=O)N3CCC2 | 6.57
Cc1ccccc1NC(=O)c1cccc(NC(=O)c2c(C(=O)O)cccc2[N+](=O)[O-])c1 | -1.35
Cc1ncc(CC(=O)n2cc(C(=O)c3cc(F)ccc3O)cn2)s1 | -1.35
Cc1ccc(-c2nc(Nc3ccc(N4CCOCC4)cc3)c3ccccc3n2)cc1 | 10.4
Nn1cnnc1SC1CCCCC1NS(=O)(=O)c1ccccc1 (stereo not shown) | 13.6
O=C(/C=C/c1cccc([N+](=O)[O-])c1)N(c1ccccn1)c1ccccn1 | 2.8
COc1ccccc1NC(=O)COC(=O)c1cn(C)c2ccccc12 | -3.06
O=C1C2C3CCC(C3)C2C(=O)N1CNc1ccccc1 (stereo not shown) | 1.54
Cn1c(=O)c2cc3c(nc2n(C)c1=O)CC(c1ccccc1)CC3=O (stereo not shown) | 11.4
c1ccc(CSc2nnc(SCc3ccccn3)s2)nc1 | -8.1
COC(=O)c1cc(NS(=O)(=O)c2ccc(N3CCOCC3)c(NC(C)=O)c2)cc(C(=O)OC)c1 | 15.6
Cc1cccc(C)c1NC(=O)CSc1nnc(CCCCCNC(=O)OC(C)(C)C)o1 | -8.78
COCCCn1c(C(=O)N2CCOCC2)cc2c(=O)n3cccc(C)c3nc21 | 1.75
COc1ccc(N2CC(C(=O)Nc3nnc(SCC(=O)NCC4CCCO4)s3)CC2=O)cc1 (stereo not shown) | 13.9
Cc1ccc(C)c(NS(=O)(=O)c2c(C)nn(C)c2C)c1 | 12.5
COCC1CCN(C(=O)c2cc(COc3ccc(F)cc3F)on2)C1 (stereo not shown) | 12.2
COc1cccc(CNc2ccc(N3CCCCC3)cc2)c1OC | 5.1
Cn1nc(C(C)(C)C)c([N+](=O)[O-])c1C(=O)NC1CCCCC1 | 4.33
C[C@]12C(=O)N(c3cccc(Cl)c3)C(=O)N1[C@H]1c3ccccc3OC[C@@H]1[C@H]2c1ccccc1 | 16
Oc1ccccc1/C=N/Nc1ccccc1 | 14.5
COC(=O)C1=C(C(=O)OC)[C@@H]2N(C)c3ccc(OC)cc3[C@@]23C[C@@H](C(=O)OC)N(C(=O)c2cccs2)C3=N1 | 3.84
